According to PubChem BioAssay AID651820 (National Center for Advancing Translational Sciences (NCATS), 2012):
Where “and” joins values, the source holds several entries; their conditions need not be identical. Equal entries are not always repeated. Out of some 340,000 compounds screened, about 12,000 (3.5%) were called active. This list was built around the results that the source calls inconclusive (neither active nor inactive); the mix of calls is not that of the screen. The call rests on the fitted dose curve; in most records, active means well fitted inhibition curve with a large enough effect; inconclusive means small, poorly fitted or top-dose-only effect, or another doubt; inactive means no such curve, though single readings can be large or run the other way. Where the call is inconclusive, the potency comes from a doubtful curve fit.
On the % scale 0 is the no-effect control and ±100 the full control effect; potency means the concentration at half of the fitted maximal effect; tags describe the fitted curve by direction and shape.

Test: qHTS Assay for Inhibitors of Hepatitis C Virus (HCV)
Conditions: Huh7.5.1 HCVcc-Cre (HCVcc is cell-culture hepatitis C virus) infection, luciferase reporter, 44 h; activity change, negative = inhibition: at 41.8 µM (top of the series) unless noted
Procedure, shortened: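 A cell-based infection assay in which seeded cells (1,000 per well) receive test compound after 4 h, are inoculated with HCVcc-Cre at approximately 0.5 moi, and are incubated 44 h before luminescence detection.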
In the case of `O=c1c2cc(-c3ccccc3)sc2nc2n1N=C(c1ccccc1)CS2`, the Potency is reported as inconclusive: 1.78 µM [inhibitor, partial curve]. With `O=C(CSc1nnc(CNC(=O)c2c(F)cccc2F)o1)NCc1ccc(F)cc1` the Potency was “inactive”. In the case of `CC1Cc2cc(/C(O)=C3/C(=O)C(=O)N(CCCn4ccnc4)C3c3cccc([N+](=O)[O-])c3)ccc2O1` (stereo not drawn), the Potency is reported as “inactive”. For `CC(=O)c1sc(NC(=O)c2ccc(C(C)(C)C)cc2)nc1C`, the Potency was “inactive”. For `CC(C)c1ccccc1NC(=S)NN(Cc1ccccc1)c1ccccc1`, the Potency was inconclusive: 25.1 µM [inhibitor, single point]. With `Nc1ccn(CC(=O)NCCCc2ccccc2)c(=O)n1` the Potency was “inactive”. For `CC1Nc2ncnc(N3CCN(c4ccccc4)CC3)c2N(Cc2ccc(Br)cc2)C1=O` (stereo not drawn), the Potency was inconclusive: 31.6 µM [inhibitor, single point]. For `Cc1cc(C(=O)N/N=C/c2cccc3ccccc23)c(C)o1`, the Potency was “inactive”. With `Cc1cc(NC(=O)C2CC(=O)N(c3ccccc3C)C2)no1` (stereo not drawn) the Potency was inconclusive: 4.47 µM [inhibitor, partial curve]. With `CCC(CO)Oc1cc(NC(=O)c2ccccc2Cl)c2ncn(C(C)C)c2c1` (stereo not drawn) the Potency was inconclusive: 31.6 µM [inhibitor, single point]. For `CCOc1c(Br)cc(CNc2ccc(N3CCOCC3)cc2)cc1OC`, the Potency was inconclusive: 11.2 µM [inhibitor, single point]. With `CCS(=O)(=O)Nc1cc(OC)c(OC)cc1Cc1nccc2cc(OC)c(OC)cc12` the Potency was “inactive”. In the case of `CC1CCc2sc(C(=O)NCC(C)(C)N3CCOCC3)cc2C1` (stereo not drawn), the Potency is reported as “inactive”. In the case of `C=CCn1c(CNC(=O)c2ccco2)nnc1SCC(=O)N1c2ccccc2Sc2ccccc21`, the Potency is reported as inconclusive: 31.6 µM [inhibitor, single point]. For `COc1ccc(OC)c(NC(=O)CSc2nc(=O)n(Cc3ccccn3)c3c2CCC3)c1`, the Potency was inconclusive: 11.2 µM [inhibitor, partial curve]. For `CCCn1c(CN2CCN(C(=O)OCC)CC2)nc2cc([N+](=O)[O-])ccc21`, the Potency was inconclusive: 12.6 µM [inhibitor, single point]. For `Cc1ccc(N(Cc2cc3ccc(C)cc3[nH]c2=O)C(=O)c2ccco2)c(C)c1`, the Potency was inconclusive: 11.2 µM [inhibitor, single point]. For `COc1ccc(N(C(C)C(=O)N2CCC(Cc3ccccc3)CC2)S(C)(=O)=O)cc1` (stereo not drawn), the Potency was active: 8.91 µM. With `COc1ccc(-c2nn(C)c3sc(C(=O)NCc4ccco4)cc23)cc1OC` the Potency was inconclusive: 1.26 µM [inhibitor, full curve]. In the case of `O=C(Nc1ccc(Br)c(C(F)(F)F)c1)c1ccc(C(F)(F)F)cc1`, the activity change, negative = inhibition is reported as inconclusive: -72.2% [inhibitor]. In the case of `CCCCc1cc(=O)oc2cc(C)cc(OCC(=O)NCc3cccnc3)c12`, the Potency is reported as inconclusive: 22.4 µM [inhibitor, single point]. With `CC(C)(C)c1ccc(C(=O)Nc2cccc(-n3cnnn3)c2)cc1` the Potency was inconclusive: 3.55 µM [inhibitor, single point]. With `Cc1ccc(OC(C)C(=O)N=Nc2c(O)[nH]c3ccc([N+](=O)[O-])cc23)cc1` (stereo not drawn) the Potency was inconclusive: 10 µM [inhibitor, partial curve]. In the case of `CCOc1ccc(S(=O)(=O)N2CCCC(C(=O)NCc3ccncc3)C2)cc1` (stereo not drawn), the Potency is reported as inconclusive: 11.2 µM [inhibitor, single point]. With `O=C(COc1ccccc1)Nc1cccc(-c2nc3cc4ccccc4cc3[nH]2)c1` the Potency was active: 7.08 µM. With `COc1cccc(N2CCN(CC(=O)c3c(C)[nH]c4ccccc34)CC2)c1` the Potency was inconclusive: 22.4 µM [inhibitor, single point]. For `CCN1C(=NCc2ccco2)N[C@@H](c2cccc(C(F)(F)F)c2)C(C(=O)OC)=C1C`, the Potency was inconclusive: 14.1 µM [inhibitor, single point]. With `CN(C)c1ccc(-c2noc(C3CCN(S(=O)(=O)c4cccc(Cl)c4)CC3)n2)cc1` the Potency was inconclusive: 8.91 µM [inhibitor, partial curve]. With `Cc1ccc(C(=O)NC(=S)Nc2ccccc2N2CCOCC2)cc1C` the Potency was inconclusive: 15.8 µM [inhibitor, single point]. In the case of `CN(c1ccccc1)c1nc(N)c([N+](=O)[O-])c(Nc2ccc(F)cc2)n1`, the Potency is reported as inconclusive: 1.78 µM [inhibitor, full curve, poor fit]. In the case of `COc1cccc(NC(=O)/C=C/c2ccc([N+](=O)[O-])cc2)c1`, the Potency is reported as inconclusive: 8.91 µM [inhibitor, partial curve]. With `Cc1cc(C)nc(Nc2n[nH]c(-c3cccc4ccccc34)n2)n1` the Potency was inconclusive: 22.4 µM [inhibitor, single point]. In the case of `CN(CC(=O)Nc1ccccc1Cl)C(=O)c1cccc(S(=O)(=O)N2CCN(Cc3ccccc3)CC2)c1`, the Potency is reported as inconclusive: 11.2 µM [inhibitor, partial curve]. For `CCn1c(CNC(=O)c2cc(OC)c(OC)c(OC)c2)cc2ccccc21`, the Potency was inconclusive: 10 µM [inhibitor, partial curve]. For `COc1cc(CN2CCC(C(=O)NCCC(C)C)CC2)ccc1OCc1ccccc1`, the Potency was inconclusive: 31.6 µM [inhibitor, single point]. With `Cc1cc(=O)[nH]c2c(C)cc(S(=O)(=O)N3CCCCC3)cc12` the Potency was “inactive”. With `CS(=O)(=O)c1ccc(NC(=O)c2cc3c(cc2Cl)N2CCCCCC2=NS3(=O)=O)cc1` the Potency was “inactive”. For `CCOCC(=O)Nc1nc(-c2ccccc2)c(CC)s1`, the Potency was inconclusive: 31.6 µM [inhibitor, single point]. With `COc1ccc(-n2c(=O)c3c(C)c(C)sc3n(Cc3cccc(F)c3)c2=O)c(OC)c1` the Potency was inconclusive: 31.6 µM [inhibitor, single point]. In the case of `CN1CCN(c2nc3cc(C(F)(F)F)ccc3n3cccc23)CC1`, the Potency is reported as inconclusive: 0.562 µM [inhibitor, partial curve, poor fit]. With `CCC1S/C(=N/S(=O)(=O)c2ccc(N)cc2)NC1=O` (stereo not drawn) the Potency was “inactive”. In the case of `CC1CCN(Cc2c(O)ccc3c(=O)c(-c4nc5ccccc5s4)c(N)oc23)CC1`, the Potency is reported as inconclusive: 31.6 µM [inhibitor, single point]. For `COc1cccc(C(=O)NC2CCCC2)c1`, the Potency was “inactive”. In the case of `CC1C(=O)N2CCCc3cc(NC(=O)C(=O)NCc4ccccn4)cc1c32` (stereo not drawn), the Potency is reported as “inactive”. With `Cc1nn(C)c(C)c1CNC(=O)c1nn2c(c1Cl)NC(c1cccs1)CC2C(F)(F)F` (stereo not drawn) the Potency was inconclusive: 3.98 µM [inhibitor, full curve, poor fit] and inconclusive: 31.6 µM [inhibitor, single point]. For `COc1ccccc1C(c1nnnn1CCc1ccccc1)N1CCCCCC1` (stereo not drawn), the Potency was inconclusive: 7.94 µM [inhibitor, partial curve]. With `CCCC(=O)Nc1sc2c(c1C#N)CCCCC2` the Potency was inconclusive: 31.6 µM [inhibitor, single point]. For `COc1ccc(CC(=O)Nc2nccs2)cc1OC`, the Potency was inconclusive: 5.62 µM [inhibitor, single point] and the activity change, negative = inhibition was inactive: -3.79% [at 0.335 µM]. For `CCn1c(SCc2nc3ccccc3[nH]2)nnc1-c1ccc(OC)cc1`, the Potency was inconclusive: 31.6 µM [inhibitor, single point]. For `COc1ccc(Cc2nc3ccccc3n2CC(=O)N/N=C/c2ccc(C)cc2O)cc1OC`, the Potency was inconclusive: 5.62 µM [inhibitor, single point]. For `CCCS(=O)(=O)N1CCC(C(=O)NC2CCCC(C)C2C)CC1` (stereo not drawn), the Potency was “inactive”. In the case of `O=C(Nc1ccccn1)c1ccc(CN(c2ccccc2)S(=O)(=O)c2ccccc2)cc1`, the Potency is reported as inconclusive: 14.1 µM [inhibitor, single point]. With `COc1ccc(NC(=O)c2ccc(C#CC(C)(C)O)cc2)cc1` the Potency was inconclusive: 10 µM [inhibitor, partial curve]. For `COc1ccc(C(C(=O)NC2CCCC2)N(C(=O)c2snc(C(N)=O)c2N)c2cccc(O)c2)cc1` (stereo not drawn), the Potency was inconclusive: 31.6 µM [inhibitor, single point]. With `O=CNc1ccc2c(c1)Cc1cccc(NC=O)c1-2` the Potency was “inactive”. In the case of `Cc1cc(NC(=O)c2ccc(C#N)cc2)on1`, the Potency is reported as “inactive”. With `O=C(NC1CC1)C1=C[C@@H](C2CCCCC2)C[C@@H](OCc2ccc(CO)cc2)O1` the Potency was “inactive”. With `CC(=O)n1cc([C@@H]2C=C(C(=O)Nc3ccccc3)O[C@H](OCc3ccc(CO)cc3)C2)c2ccccc21` the Potency was inconclusive: 10 µM [inhibitor, partial curve]. In the case of `COc1ccc(CNC(=O)c2cc(S(=O)(=O)N3CCCCC3)ccc2Cl)cc1OC`, the Potency is reported as active: 11.2 µM. In the case of `Cc1cc(C)c2nc(N3CCCN(C(=O)c4ccco4)CC3)c(C#N)cc2c1`, the Potency is reported as inconclusive: 8.91 µM [inhibitor, partial curve]. In the case of `O=C(N=c1ccn(-c2nc3ccccc3nc2NS(=O)(=O)c2ccccc2)cc1)c1cccs1`, the Potency is reported as “inactive”. In the case of `Oc1ccc(Br)cc1-c1nc2cnccn2c1NC1CCCCC1`, the Potency is reported as inconclusive: 8.91 µM [inhibitor, partial curve]. With `O=[N+]([O-])c1nn(-c2ccc(Cl)cc2)n(O)c1=NCc1ccccc1` the Potency was “inactive”. With `CCn1c(=O)c([N+](=O)[O-])c(Cl)c2ccccc21` the Potency was inconclusive: 22.4 µM [inhibitor, single point]. For `Cc1cccc2cc3c(N)c(C#N)sc3nc12`, the Potency was inconclusive: 10 µM [inhibitor, single point]. In the case of `N#Cc1cc2c(nc1SCC(=O)Nc1cc(Cl)ccc1Cl)C1CCN2CC1`, the Potency is reported as inconclusive: 14.1 µM [inhibitor, single point]. With `O=C(Nc1cccn(Cc2c(Cl)cccc2Cl)c1=O)c1ccc(Cl)cc1` the Potency was inconclusive: 3.16 µM [inhibitor, full curve].
